# Experimental data taken from the supplement of paper PMC8728848.
# This is one part of the list.
# B1: NKR-PIC (Mus musculus) (protein)
# chain: GTGQKPSREKCCVFIQENLNKTTDCSVNLECPQDWLLHRDKCFHVSQVSNTWEEGQADCGRKGATLLLIQDQEELRFLLDSIKEKYNSFWIGLRFTLPDMNWKWINGTTFNSDVLKITGVTENGSCASILGDKVTPESCASDNRWICQKELNHETPSNDSGT
# Assays:
# Test in all cases: glycan array binding signal (z-score within array); higher = stronger binding
# Settings in all cases: glycan notation: IUPAC condensed, linker removed
# [1] = target: Neu5Ac(a2-8)Neu5Ac
# Procedure, shortened: (§1)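 Glycan array data were curated from 3228 arrays in the Consortium for Functional Glycomics database and kept only where the protein sequence was available. Glycan names were converted to IUPAC-condensed notation, and columns mapping to the same glycan were averaged. The binding signal is a within-array Z-score, averaged across arrays of the same protein sequence at different concentrations or buffers and across linkers. Negative Z-scores can be read as non-binding.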
# [2] = target: Neu5Ac(a2-8)Neu5Ac(a2-3)Gal(b1-3)GalNAc(b1-4)[Neu5Ac(a2-3)]Gal(b1-4)Glc
# Procedure, shortened: as §1
# [3] = target: Neu5Ac(a2-8)Neu5Ac(a2-3)Gal(b1-3)GalNAc(b1-4)[Neu5Ac(a2-8)Neu5Ac(a2-3)]Gal(b1-4)Glc
# Procedure, shortened: as §1
# [4] = target: Neu5Ac(a2-8)Neu5Ac(a2-3)Gal(b1-4)Glc
# Procedure, shortened: as §1
# [5] = target: Neu5Ac(a2-8)Neu5Ac(a2-3)Gal(b1-4)GlcNAc
# Procedure, shortened: as §1
# [6] = target: Neu5Ac(a2-8)Neu5Ac(a2-3)[Gal(b1-3)GalNAc(b1-4)]Gal(b1-4)Glc
# Procedure, shortened: as §1
# [7] = target: Neu5Ac(a2-8)Neu5Ac(a2-3)[GalNAc(b1-4)]Gal(b1-4)Glc
# Procedure, shortened: as §1
# [8] = target: Neu5Ac(a2-8)Neu5Ac(a2-8)Neu5Ac
# Procedure, shortened: as §1
# [9] = target: Neu5Ac(a2-8)Neu5Ac(a2-8)Neu5Ac(a2-3)Gal(b1-4)Glc
# Procedure, shortened: as §1
# [10] = target: Neu5Ac(a2-8)Neu5Ac(a2-8)Neu5Ac(a2-3)[Gal(b1-3)GalNAc(b1-4)]Gal(b1-4)Glc
# Procedure, shortened: as §1
# [11] = target: Neu5Ac(a2-8)Neu5Ac(a2-8)Neu5Ac(a2-3)[GalNAc(b1-4)]Gal(b1-4)Glc
# Procedure, shortened: as §1
# [12] = target: Neu5Ac(a2-8)Neu5Ac(a2-8)Neu5Ac(a2-8)Neu5Ac(a2-3)[GalNAc(b1-4)]Gal(b1-4)Glc
# Procedure, shortened: as §1
# [13] = target: Neu5Ac(a2-8)Neu5Gc(a2-3)Gal(b1-4)GlcNAc
# Procedure, shortened: as §1
# [14] = target: Neu5Ac(b2-6)Gal(b1-4)GlcNAc
# Procedure, shortened: as §1
# [15] = target: Neu5Ac(b2-6)GalNAc
# Procedure, shortened: as §1
# [16] = target: Neu5Ac9Ac(a2-3)Gal(b1-3)GlcNAc
# Procedure, shortened: as §1
# [17] = target: Neu5Ac9Ac(a2-3)Gal(b1-4)GlcNAc
# Procedure, shortened: as §1
# [18] = target: Neu5Ac9Ac(a2-6)Gal(b1-4)GlcNAc
# Procedure, shortened: as §1
# [19] = target: Neu5Gc(a2-3)Gal(b1-3)GlcNAc
# Procedure, shortened: as §1
# [20] = target: Neu5Gc(a2-3)Gal(b1-3)[Fuc(a1-4)]GlcNAc
# Procedure, shortened: as §1
# [21] = target: Neu5Gc(a2-3)Gal(b1-4)Glc
# Procedure, shortened: as §1
# [22] = target: Neu5Gc(a2-3)Gal(b1-4)GlcNAc
# Procedure, shortened: as §1
# [23] = target: Neu5Gc(a2-3)Gal(b1-4)GlcNAc(b1-3)Gal(b1-4)GlcNAc(b1-2)Man(a1-3)[Neu5Gc(a2-3)Gal(b1-4)GlcNAc(b1-3)Gal(b1-4)GlcNAc(b1-2)Man(a1-6)]Man(b1-4)GlcNAc(b1-4)GlcNAc
# Procedure, shortened: as §1
# [24] = target: Neu5Gc(a2-3)Gal(b1-4)[Fuc(a1-3)]GlcNAc
# Procedure, shortened: as §1
# [25] = target: Neu5Gc(a2-6)Gal(b1-4)GlcNAc
# Procedure, shortened: as §1
# [26] = target: Neu5Gc(a2-6)GalNAc
# Procedure, shortened: as §1
# [27] = target: Neu5Gc(a2-8)Neu5Ac(a2-3)Gal(b1-4)GlcNAc
# Procedure, shortened: as §1
# [28] = target: Neu5Gc(a2-8)Neu5Gc(a2-3)Gal(b1-4)GlcNAc
# Procedure, shortened: as §1
# [29] = target: Neu5Gc(a2-8)Neu5Gc(a2-3)Gal(b1-4)GlcNAc(b1-3)Gal(b1-4)GlcNAc
# Procedure, shortened: as §1
# [30] = target: Neu5Gc(a2-8)Neu5Gc(a2-6)Gal(b1-4)GlcNAc
# Procedure, shortened: as §1
# [31] = target: Neu5Gc(b2-6)Gal(b1-4)GlcNAc
# Procedure, shortened: as §1
binder,measurement,setting,value
B1,glycan array binding signal (z-score),[1],-0.32
same,glycan array binding signal (z-score),[2],-0.321
same,glycan array binding signal (z-score),[3],-0.352
same,glycan array binding signal (z-score),[4],-0.342
same,glycan array binding signal (z-score),[5],-0.378
same,glycan array binding signal (z-score),[6],-0.302
same,glycan array binding signal (z-score),[7],-0.318
same,glycan array binding signal (z-score),[8],-0.338
same,glycan array binding signal (z-score),[9],-0.372
same,glycan array binding signal (z-score),[10],-0.372
same,glycan array binding signal (z-score),[11],-0.335
same,glycan array binding signal (z-score),[12],-0.286
same,glycan array binding signal (z-score),[13],-0.282
same,glycan array binding signal (z-score),[14],-0.316
same,glycan array binding signal (z-score),[15],-0.161
same,glycan array binding signal (z-score),[16],-0.361
same,glycan array binding signal (z-score),[17],-0.359
same,glycan array binding signal (z-score),[18],-0.309
same,glycan array binding signal (z-score),[19],-0.264
same,glycan array binding signal (z-score),[20],-0.326
same,glycan array binding signal (z-score),[21],-0.278
same,glycan array binding signal (z-score),[22],-0.264
same,glycan array binding signal (z-score),[23],-0.302
same,glycan array binding signal (z-score),[24],-0.403
same,glycan array binding signal (z-score),[25],-0.34
same,glycan array binding signal (z-score),[26],-0.216
same,glycan array binding signal (z-score),[27],-0.409
same,glycan array binding signal (z-score),[28],-0.369
same,glycan array binding signal (z-score),[29],-0.408
same,glycan array binding signal (z-score),[30],-0.304
same,glycan array binding signal (z-score),[31],-0.177
